Source: patent publication US20230346718A1, “METHOD OF TREATING, AMELIORATING AND/OR […]” (YALE UNIVERSITY, priority 2022, published 2023)

Experiments:
[1] = system: healthy controls (HC) and MDD participants; experiment: Drug desirability / reinforcement and abuse liability measures; format: in vivo, human; conditions: for overall willingness to use DMT (0=not at all to 100=most of all): mean (SD)
[2] = system: patients with treatment-resistant major depressive disorder (MDD); experiment: Next day depression rating, clinician administered HAMD-17

Which “overall willingness to use DMT (0=not at all to 100=most of all)” value ([1]; 0.1 mg/kg session) does the source give for `CN(C)CCc1c[nH]c2ccccc12` [DMT, N,N-dimethyltryptamine] here?
Its value is 24.00 (SD 17.91).

What about the “overall willingness to use DMT (0=not at all to 100=most of all)” value ([1]; 0.3 mg/kg session) of the same compound?
The value was 22.44 (SD 22.72).

And the “amount participants were willing to pay for the experience ($0-100)” value ([1]; immediately after the dosing session)?
The value was 25 $.

What about the “Difference in HAMD-17 between the 0.1 mg/kg session and 0.3 mg/kg session” value ([2]; 95% CI −6.87 to −0.013, p=0.044) of the same compound?
Its value is −3.5.

What about the “antidepressant effect (in words)” value ([2]; IV 0.1 and 0.3 mg/kg, treatment-resistant MDD) of the same compound?
The value was “produced next day (rapid) antidepressant effect”.

And the “mean reduction in HAMD-17 score” value ([2]; MDD participants, day after 0.3 mg/kg IV)?
Its value is “about 4.5 points”.

What about the “HAMD-17 score, mean difference from baseline” value ([2]; MDD participants, day after 0.3 mg/kg IV DMT, 95% CI −7.80 to −1.20, p=0.017) of the same compound?
The value was −4.5 points.

And the “Hedge's g effect size of HAMD-17 change” value ([2]; baseline vs day after 0.3 mg/kg IV)?
Its value is 0.75.

What about the “HAMD-17 depression score post-0.3 mg/kg session” value ([2]; mean (SD), baseline 23.86 (SD 4.45)) of the same compound?
Its value is 20.20 (SD 7.82).
